PMC4336329 (PLoS ONE, 2015)
The campaign covered roughly 310,000 compounds. About 14,000 (4.5%) showed an effect of 50% or more. Effects have a minus sign here. The list shows a part of the results. Where a SMILES comes first, the peptide text is derived from it. The star is where a group is joined. Cbz = O=C(OCc1ccccc1)*

Each molecule was assayed against human ether-à-go-go-related gene (hERG) potassium channel (human, UniProt Q12809) (assay: primary screen, population patch clamp on CHO cells stably expressing hERG).
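Also: peak tail current of the secondary pulse compared with the same well before compound.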

Sequence of human ether-à-go-go-related gene (hERG) potassium channel (Q12809 whole entry, looked up): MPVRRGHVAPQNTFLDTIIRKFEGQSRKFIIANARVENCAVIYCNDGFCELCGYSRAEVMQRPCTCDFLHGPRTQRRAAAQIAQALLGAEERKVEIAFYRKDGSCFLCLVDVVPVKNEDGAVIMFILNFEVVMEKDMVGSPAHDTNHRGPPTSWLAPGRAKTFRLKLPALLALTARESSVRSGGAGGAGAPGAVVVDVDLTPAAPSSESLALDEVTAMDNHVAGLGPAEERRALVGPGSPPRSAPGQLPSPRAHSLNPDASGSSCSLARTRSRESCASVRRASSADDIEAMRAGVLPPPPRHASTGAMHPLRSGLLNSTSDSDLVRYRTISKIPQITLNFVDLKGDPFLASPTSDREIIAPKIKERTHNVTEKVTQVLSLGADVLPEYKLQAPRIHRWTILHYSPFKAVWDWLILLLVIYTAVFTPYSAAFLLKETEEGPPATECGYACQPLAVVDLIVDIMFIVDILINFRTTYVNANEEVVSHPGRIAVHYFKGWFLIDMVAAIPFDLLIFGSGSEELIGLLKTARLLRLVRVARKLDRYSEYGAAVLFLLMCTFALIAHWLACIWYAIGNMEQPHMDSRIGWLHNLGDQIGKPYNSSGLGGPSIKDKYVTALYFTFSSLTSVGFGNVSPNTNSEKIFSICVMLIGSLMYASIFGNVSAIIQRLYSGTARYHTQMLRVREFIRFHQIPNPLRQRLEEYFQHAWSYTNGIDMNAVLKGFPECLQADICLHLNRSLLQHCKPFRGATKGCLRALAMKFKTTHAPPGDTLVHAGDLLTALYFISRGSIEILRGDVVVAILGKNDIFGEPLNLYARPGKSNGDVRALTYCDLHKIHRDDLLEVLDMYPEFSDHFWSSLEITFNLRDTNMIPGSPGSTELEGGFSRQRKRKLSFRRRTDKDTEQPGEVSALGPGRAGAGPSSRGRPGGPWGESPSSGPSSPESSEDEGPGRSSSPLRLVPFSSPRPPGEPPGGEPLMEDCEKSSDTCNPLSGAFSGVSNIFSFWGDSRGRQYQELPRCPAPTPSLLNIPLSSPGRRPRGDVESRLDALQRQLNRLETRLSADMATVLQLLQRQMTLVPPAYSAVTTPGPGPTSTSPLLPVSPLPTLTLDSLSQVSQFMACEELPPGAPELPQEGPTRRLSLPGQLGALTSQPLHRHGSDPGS

| SMILES | hERG current change (%, negative = inhibition) at 10uM |
| --- | --- |
| CS(=O)(=O)Nc1ccc(C(=O)Nc2ccccc2C(=O)N2CCCC2)cc1 | -26.8% |
| O=C(O)CC(c1ccc(F)cc1F)N1Cc2ccccc2C1=O (centres unmarked) | 22.3% |
| COc1ccc(S(=O)(=O)N(C)C)cc1NCC(=O)Nc1cccc2ccccc12 | -15.4% |
| CCOC(=O)N1CCN(Cc2ccccc2F)CC1 | 2.68% |
| CCCCNC(=O)c1onc(CCl)c1C(=O)OC | 2.21% |
| O=C(O)CCNc1cc(N2CCN(C(=O)c3ccco3)CC2)c2noc3c2c1C(=O)c1ccccc1-3 | 10.3% |
| CC(Sc1nc(N)c2c3c(sc2n1)CSC(C)(C)C3)C(=O)Nc1ccccc1 (centres unmarked) | -4.32% |
| CC(Oc1ccc(Cl)cc1Cl)C(=O)NCCCN1CCOCC1 (centres unmarked) | -1.16% |
| O=C(NCCCO)C(=O)Nc1cc2c3c(c1)CCN3C(=O)CC2 | 11.8% |
| Cc1nc2c(sc3nc(N4CCOCC4)c4c(c32)CC(C)(C)OC4)c(-c2ccccc2)c1C(=O)O | 11.4% |
| CC1=CC=CN2CC(O)CN=C12.Cl (centres unmarked) | 9.41% |
| Cl.NCC1CC2c3ccccc3C1c1ccccc12 (centres unmarked) | 15.2% |
| CC(C)CN1C(=O)/C(=C/c2ccco2)NC1=S | 9.25% |
| COc1ccccc1NC(=S)NC(NC(C)=O)C(Cl)(Cl)Cl (centres unmarked) | 2.3% |
| COc1ccc(NC(=O)CC2C(=O)N(c3ccccc3)C(=O)N2CCc2cccs2)cc1 (centres unmarked) | -32.9% |
| CCn1c(=O)n(CC(=O)Nc2cccc(OC)c2)c(=O)c2ccccc21 | -42.4% |
| O=C(c1cc(F)ccc1F)N1CCC(N2CCC(C(=O)N3CCCC3)CC2)CC1 | 6.92% |
| CCC(CC)C(=O)Nc1nnc(SCC(=O)NC2CC2)s1 | 15.1% |
| CN(C)Cc1c(O)ccc2c1O/C(=C\C=C\c1ccccc1)C2=O | -15.4% |
| CC(Cc1ccccc1)NC(=O)c1cc2ccccc2o1 (centres unmarked) | 12.6% |
| O=C(N/N=C/c1cccc(O)c1)NC1CCCCC1 | -14.7% |
| Cc1cc(C)n(-c2nc(N(C)C)nc(N(C)C)n2)n1 | 14.2% |
| Cc1cc(Br)c(NC(=O)CCl)c(Br)c1 | -6.04% |

| SMILES | hERG current change (%, negative = inhibition) at 10uM |
| --- | --- |
| Cc1c(NC(=O)Nc2cccc(Cl)c2Cl)c(=O)n(-c2ccccc2)n1C | -2.84% |
| NS(=O)(=O)c1ccc(CCNC(=O)CCc2ccccc2)cc1 | 1.22% |
| COC(=O)CC1C(=O)NCCN1C(=S)Nc1cccc(C)c1 (centres unmarked) | 4.74% |
| CCOC(=O)c1sc(NC(=O)C2CC2)cc1C | 9.19% |
| CC1=C(C(=O)N2CCOCC2)C(c2ccc(-c3ccccc3)cc2)NC(=S)N1 (centres unmarked) | 14% |
| CC(C)N(C)Cc1nnnn1CC(=O)NCCc1cccc(C(F)(F)F)c1 | 4.67% |
| O=C(O)C1(c2ccccc2)CCN(S(=O)(=O)c2ccc(F)c(F)c2)CC1 | 2.44% |
| COc1ccc(CC(=O)Nc2ccc(C(N)=O)cc2)cc1 | 5.52% |
| O=S(=O)(c1ccc(-c2ccccn2)s1)N1CCC2(CC1)OCCO2 | 11% |
| CCOc1ccc(CCNC(=O)c2cc3sccc3n2CC)cc1OCC | -3.91% |
| O=S(=O)(Nc1ncccn1)c1ccc(NS(=O)(=O)c2cccc(Cl)c2Cl)cc1 | 49.7% |
| Cc1ccc(NC(=O)C2CCN(S(=O)(=O)c3ccc4c(c3)NC(=O)C(C)S4)CC2)c(Cl)c1 (centres unmarked) | 10.3% |
| Cc1nc(NC(=O)/C=C/c2ccc(Cl)cc2Cl)sc1C(=O)N(C)C | 15.4% |
| CN(C)CCNC(=O)c1c(CSc2ccccc2)noc1C(=O)NCc1ccccc1 | -37.1% |
| O=C(COC(=O)CCC(=O)c1ccc2c(c1)OCCO2)NCc1ccc2c(c1)OCO2 | 6.22% |
| O=C(NCc1ccccc1)c1ccccc1Br | -3.91% |
| COC(=O)N/N=C/c1ccc(OCCSc2ccc(Cl)cc2)c(OC)c1 | -6.11% |
| CN1CCC(NC(=O)NC2CCCCC2)CC1 | 11.9% |
| CC1(C)Cc2c(cnn2-c2ccccc2)C(NC(=O)CCN2CCCCO2)C1 (centres unmarked) | 7.93% |
| CC(=O)c1nnn(-c2ccc([N+](=O)[O-])cc2)c1C | 2.06% |
| O=C(CC1SC(=Nc2ccc(OC(F)F)cc2)N(CCC2=CCCCC2)C1=O)Nc1ccccc1F (centres unmarked) | 15.7% |
| N#C/C=C1\n2c(nc3ccccc32)OC12CCCCC2 | -32.6% |
| COc1ccc(OC(C)C(=O)Nc2ccccc2C(F)(F)F)cc1 (centres unmarked) | -14.5% |

| SMILES | hERG current change (%, negative = inhibition) at 10uM |
| --- | --- |
| Cc1cccc(C(=O)NCCc2ccc(S(N)(=O)=O)cc2)c1[N+](=O)[O-] | -11.6% |
| Cc1nc(C)c(-c2ccnc(/N=C/NO)n2)s1 | 6.75% |
| CC(OC(=O)C1CCCCC1)c1nc2ccccc2[nH]1 (centres unmarked) | -7.93% |
| CC(Oc1ccccc1)C(=O)Nc1nc2c(s1)C(=O)CC(C)(C)C2 (centres unmarked) | 11.8% |
| CSCCC(=O)N1CCC(n2nccc2NC(=O)c2ccc3c(c2)OCO3)CC1 | 4.77% |
| Cc1ccc(O)c(/C=N/NC(=O)CN2CCCC2)c1 | 10.8% |
| CCOC(=O)CSc1nc2cc(C(=O)N3CCC(C(N)=O)CC3)ccc2c(=O)n1-c1ccccc1 | -16.2% |
| CN1CCN(Cc2nc(N)nc(Nc3ccc4c(c3)OCCO4)n2)CC1 | -26.1% |
| Cn1c(C(=O)O)cc2c(=O)n3ccccc3nc21 | 21% |
| Cn1nc(C(=O)NCc2ccccc2Cl)c2c1-c1ccccc1S(=O)(=O)C2 | -14.4% |
| CN(C)C(=O)c1c(NC(=O)c2ccccc2)sc2c1CCC2 | 11% |
| CCc1ccccc1NC(=O)CSc1nnc([C@@H]2CCCN2C(=O)OC(C)(C)C)o1 | -1.99% |
| COc1ccccc1-c1coc2c(CN3CCN(CCO)CC3)c(O)ccc2c1=O | 17.7% |
| Cc1ccc(NS(=O)(=O)c2ccc(C(=O)N3CCN(S(=O)(=O)c4ccccc4)CC3)cc2)cc1 | -6.03% |
| COc1ccccc1NC(=S)N1CCN(c2cccc(C)c2C)CC1 | 1.37% |
| CCC(Sc1nc(N)cc(=O)[nH]1)C(=O)NC(C(=O)OC)c1ccccc1 (centres unmarked) | 0.59% |
| CC(/C=N/NC(=O)c1nnn(-c2nonc2N)c1CN1CCCCC1)=C\c1ccccc1 | 6.51% |
| O=S(=O)(NCc1ccccc1)c1ccc(S(=O)(=O)N2CCCC2)cc1 | -0.882% |
| Cc1nc(SCC(=O)NC2CCCCC2)[nH]c(=O)c1C | 3.8% |
| CCCOc1ccc(C(=O)Nn2c(C)nc3ccccc3c2=O)cc1 | -3.72% |
| O=C(CSc1ccc2nnc(-c3ccccn3)n2n1)N1CCN(c2ccccc2)CC1 | -86.7% |
| Cc1ccsc1C(=O)N1CCCC(CCC(=O)NCc2ccccc2F)C1 (centres unmarked) | -7.46% |
| CCOC(=O)c1cc(C)n(CCCN2CCOCC2)c1C | 11% |

| SMILES | hERG current change (%, negative = inhibition) at 10uM |
| --- | --- |
| COc1ccc(C2C(C(=O)c3sc(C)nc3C)=C(O)C(=O)N2CCN(C)C)cc1 (centres unmarked) | -6.4% |
| CCC12C(=O)C(CC)(C(c3ccccc3)=C1c1ccccc1)[C@@H]1C(=O)N(c3ccc(C)cc3)C(=O)C12 (some centres unmarked) | 14.5% |
| OCCOCCNc1ncnc2nc[nH]c12 | 9.58% |
| C#CC1CCCCC1NC(=O)Nc1cnccc1C(F)(F)F (centres unmarked) | 11.8% |
| COC(=O)c1ccccc1S(=O)(=O)C(C)(C)C | -1.71% |
| COC(=O)C(NC(=O)c1ccc(C)cc1)(Nc1cccc(C)n1)C(F)(F)F (centres unmarked) | -11.7% |
| COc1ccc(N2C(=O)CSC2c2ccc(F)c(F)c2)cc1 (centres unmarked) | 13.1% |
| C=CCN(C(=O)c1csnn1)C(C(=O)NC1CCCCC1)c1ccccc1F (centres unmarked) | 3.38% |
| COc1cc(OC)c2c(c1O)OC(c1ccccc1)CC2=O (centres unmarked) | 18.9% |
| O=C(O)C(=O)O.O=[N+]([O-])c1ccccc1S(=O)(=O)N1CCN(Cc2ccsc2)CC1 | -38.1% |
| C=CCSc1nn2c(=O)c3ccccc3nc2s1 | -24.5% |
| Cc1ccc(C2(CCNS(=O)(=O)c3ccc(C)cc3)CCOC(C(C)C)C2)cc1 (centres unmarked) | -53.5% |
| Cc1ccccc1NC(=O)C1(NC(=O)c2cccc(N3C(=O)CSC3c3ccccc3)c2)CCCCC1 (centres unmarked) | 5.33% |
| CC(C)c1cc(-c2cc(C(=O)Nc3ccccc3)on2)nc(NC2CCCC2)n1 | -5.33% |
| CCCc1oc(C(=O)O)cc1CN.Cl | 5.96% |
| COc1cccc(NC(=O)C2CCCN2C(=O)NC2CCCCC2)c1 (centres unmarked) | 6.54% |
| CC(NC(=O)CNC(=O)C(Cc1ccccc1)NC(=O)OCc1ccccc1)C(N)=O (stereo not drawn) (Cbz-Phe-Gly-Ala-NH2; configuration not given here) | 42.4% |
| COc1ccccc1CCNC(=O)c1ccc(C)o1 | -10.2% |
| COc1ccc(O)c(C=NCC(C)N=Cc2cc(OC)ccc2O)c1 (centres unmarked) | 8.91% |
| Cc1ccc(-n2nc3c(c2NC(=O)CC(C)C)CS(=O)(=O)C3)c(C)c1 | 25% |
